Source: ChEMBL document CHEMBL4888484, “Replenishing the malaria drug discovery pipeline: Screening and hit evaluation of the MMV Hit Generation Library 1 (HGL1) against asexual blood stage Plasmodium falciparum ,using a nano luciferase reporter read-out” (2022)
Where “and” joins values, the source holds several entries; their conditions need not be identical. Equal values may be shown once. Hit rate of the full screen: of about 150,000 compounds, about 540 (0.36%) showed an effect of 50% or more. The list shows a part of the results.

Tested on: Plasmodium falciparum
Assay: Primary screen in NF54 nanoGlo assay, in single point, at 2uM, 72h; a lower Z score goes with more inhibition
Format: functional, Erythrocyte
Conditions: timepoint 72 hour

Row | Compound | % Inhibition [%] | Z score | % Inhibition (2 µM) | Z score (2 µM)
1 | CCCCc1nn(CC(=O)NCc2n[nH]c(C)n2)c(=O)n1CC | -17 | 1.65 | – | –
2 | N#CC1(c2nc(-c3ccnc(O)c3)no2)CCCCC1 | -10 | 2.03 | – | –
3 | COCCN(C)C[C@H]1C[C@H](CO)CN(C(=O)c2cc3ccccc3s2)C1 | -8 | 1.06 | – | –
4 | Cc1c(N2CCOCC2)c(C)n(Cc2cccc(C(F)(F)F)c2)c1C(=O)Nc1cccc(F)c1 | -9 | 1.8 | – | –
5 | Cc1nnnn1CC(O)CN1CC(C)OC(C)C1 (stereo not drawn) | -4 | 0.51 | – | –
6 | COc1ccc(OC)c(CNC(=O)c2ccc(CN3C(=O)CCn4nc(-c5ccccc5)cc43)cc2)c1 | 8 | -0.9 | – | –
7 | Cc1ccc(C(=O)NC[C@H]2CCCN2C2CCCCC2)nn1 | -2 | 0.29 | – | –
8 | CCOc1ncccc1C(=O)NCc1cc(-c2cccs2)on1 | 3 | -0.35 | – | –
9 | Cc1oc2ncnc(N3CCC[C@H](C(=O)Nc4cc(F)ccc4F)C3)c2c1C | -6 | 0.61 | – | –
10 | C[C@H]1CCc2nc3ncn(CC(=O)NC4CCCCCC4)c(=O)c3cc2C1 | -10 | 1.51 | – | –
11 | COc1ccccc1-n1nc(CN(C(=O)C(C)(C)C)C2CC2)c2c1CCN(Cc1ccccc1F)C2 | -3 | 0.62 | – | –
12 | CC(=O)N(CCc1noc(C(C)C)n1)[C@H]1CCN(C(=O)c2cccs2)C1 | -11 | 0.97 | – | –
13 | CCOCCCN(CC(=O)N(Cc1ccccc1)Cc1ccc(C)o1)C(=O)CC(C)(C)C | -27 | 2.67 | – | –
14 | Cc1ccc(CNC(=O)Cn2c(C)cc3nc4n(c(=O)c32)CCCCC4)cc1 | -8 | 1.42 | – | –
15 | Cc1cc(COc2ccccc2)oc1C(=O)N[C@H]1CCCCNC1=O | -6 | 1.07 | – | –
16 | COc1ncccc1-c1nc(C)ccc1C#N | -8 | 1.46 | – | –
17 | O=C(Cn1nnc2ccccc21)N[C@H]1CCN(c2ccc3nncn3n2)C1 | 0 | -0.04 | – | –
18 | O=C(O)c1cccnc1CN1CCN(c2ccc(Cl)c(Cl)c2)CC1 | -13 | 1.39 | – | –
19 | OCC(C1CC1)C(NCc1cscn1)C1CC1 (stereo not drawn) | -7 | 0.76 | – | –
20 | CN(Cc1ccon1)c1nc(-c2ccco2)nc2c1CCNCC2 | -17 | 1.74 | – | –
21 | COc1cccc(CCCN=C(N(C)C)N(C)C)c1 | 3 | -0.29 | – | –

Row | Compound | % Inhibition [%] | Z score | % Inhibition (2 µM) | Z score (2 µM)
22 | CCn1cnnc1CNC(=O)c1ccc2c(c1)OCCO2 | 1 | -0.11 | – | –
23 | CC(C)[C@@H]1CCCN1C(=O)c1cnn2cccnc12 | -1 | 0.22 | – | –
24 | CN(C)C(=O)N1CCC(c2nnc(CN3CCCCCC3)n2C)CC1 | -17 | 1.83 | – | –
25 | CN(Cc1oc2ccccc2c1Cl)[C@@H]1COC[C@H]1O | -6 | 0.61 | – | –
26 | Cc1ccc(F)cc1Cn1ccnc1[C@H]1CCOC(C)(C)C1 | -5 | 0.68 | – | –
27 | Cc1nc(NCCNc2ccncc2C)c2c(C)noc2n1 | 2 | -0.15 | – | –
28 | COc1ccccc1-c1c[nH]nc1-c1ccc(OCc2c(F)cccc2Cl)cc1O | 4 | -0.55 | – | –
29 | COc1cc(NC(=O)Cc2ccc(OC)c(OC)c2)ncn1 | 8 | -1.51 | – | –
30 | Cc1ccccc1-c1oc(C)c(C)[n+]1[O-] | 2 | -0.28 | – | –
31 | O=C(O)C[C@@H]1CCN(C2CCCCC2)C[C@@H]1Cc1nc2cnccc2[nH]1 | -3 | 0.6 | – | –
32 | Cc1ncc(-c2nc(-c3ccccc3)cs2)c(=O)n1CC(=O)N1CCc2ccccc2C1 | -10 | 1.65 | – | –
33 | COc1ccc(Br)cc1CN[C@H]1CCCS(=O)(=O)C1 | -10 | 1.5 | – | –
34 | Cc1cc(C(=O)N(Cc2cc(C3CC3)n(C)n2)C2CCCC2)c(C)o1 | -8 | 1.44 | – | –
35 | O=C(CCn1c(N2CCCC2)nc2ccccc2c1=O)NCc1ccc(F)cc1 | -5 | 0.92 | – | –
36 | CC(C)C1CC(CC(=O)N2CCCC(C)C2CCO)CCO1 (stereo not drawn) | 3 | -0.46 | – | –
37 | CCn1c(C)cc(C(=O)N(C)C2(C#N)CCC2)c1C | -4 | 0.4 | – | –
38 | Cc1ccc(Oc2c(CN(C[C@H](O)COc3ccccc3)C3CC3)c(C)nn2-c2ccccc2)cc1 | -4 | 0.49 | – | –
39 | CC(N[C@H](CO)Cc1ccc(O)cc1)c1ccccn1 (stereo partly drawn) | -4 | 0.68 | – | –
40 | CN(Cc1cn(C)nn1)[C@@H](C(=O)O)c1cccc(Cl)c1 | -13 | 1.7 | – | –
41 | O=C(Nc1ccc(Cl)cc1C(O)c1ccccc1)c1cnn2c1N[C@@H](c1ccccc1)C[C@H]2C(F)(F)F (stereo partly drawn) | 23 | -3.79 | – | –
42 | CC1CCN(CC(=O)N2CC(CF)C2)CC1 | -9 | 1.33 | – | –

Row | Compound | % Inhibition [%] | Z score | % Inhibition (2 µM) | Z score (2 µM)
43 | Cc1ccc(-n2nc(C(=O)O)c(C)c2Oc2ccc(NC(=O)C3CCC3)cc2S(=O)(=O)NC(C)(C)C)cc1 | -5 | 0.74 | – | –
44 | CN1CCC[C@H](NC(=O)Nc2cccc(Oc3ccccc3)n2)C1=O | -11 | 1.38 | – | –
45 | CCc1ccc(NC(=O)c2ccc(Oc3ccnc(-c4ccc(F)cc4)n3)cc2)cc1 | 5 | -0.59 | – | –
46 | CCn1cc(CN(C)C(=O)c2cccc(-c3ccc(OC)cc3C)c2)cn1 | -9 | 1.09 | – | –
47 | O=S(=O)(c1ccc2c(c1)CCO2)N1CC2CC1CO2 (stereo not drawn) | -10 | 1.21 | – | –
48 | COc1ccccc1N1CCN(CCN2C(=O)CCC2=O)CC1 | 10 | -1.82 | – | –
49 | CNC(=O)c1n[nH]c2c1[C@@H](c1cccc(C(=O)OC)n1)CC(=O)N2 | -4 | 0.56 | – | –
50 | O=S(=O)(NCCn1ccn2nc(-c3ccco3)cc12)C1CC1 | 4 | -0.57 | – | –
51 | N#Cc1ccc(N2CCC[C@H](n3cncn3)C2)nn1 | -7 | 0.84 | – | –
52 | CCN(CC)[C@@H](CNCc1cccc(F)c1F)c1ccco1 | 3 | -0.52 | – | –
53 | Cc1cccc(CCN2CCN(C(=O)CO)CC2)n1 | -7 | 1.15 | – | –
54 | CCN(C(=O)[C@H]1CCS(=O)(=O)C1)C1CCCCC1 | -4 | 0.55 | – | –
55 | CCOc1ccc(CN2CCO[C@@H](CC)C2)cn1 | -10 | 0.92 | – | –
56 | Cc1cc(NC(=O)Cc2c(C)noc2C)no1 | -5 | 0.68 | – | –
57 | O=C(Nc1cccc(-c2ccco2)c1)N1CCC(C(=O)N2CCCC2)CC1 | -18 | 1.79 | – | –
58 | COc1ccc(OC)c(CNC(=O)C2CCN(c3ccc(-c4ccccc4)nn3)CC2)c1 | -19 | 1.84 | – | –
59 | CC1(C)C[C@@H](NC(=O)CNS(=O)(=O)c2ccccc2N)CCO1 | 3 | -0.64 | – | –
60 | O=S1(=O)N=C(Nc2cc(C(F)(F)F)ccc2N2CCCCC2)c2ccccc21 | -9 | 0.92 | – | –
61 | CC1(C(=O)NCCCn2nccc2C2CC2)CCCCC1 | -6 | 1.11 | – | –
62 | O[C@@H]1COCCN(Cc2cccc3nonc23)C1 | -10 | 1.22 | – | –
63 | CN(C(=O)CS(=O)(=O)N(C)C)C1CCCC1Cc1ccccc1 (stereo not drawn) | 15 | -1.87 | – | –

Row | Compound | % Inhibition [%] | Z score | % Inhibition (2 µM) | Z score (2 µM)
64 | c1ccc(CN2CCC(N[C@H]3CCc4ccccc4C3)CC2)cc1 | 2 | -0.25 | – | –
65 | O=C(COC[C@H]1CCCO1)Nc1cnnn1-c1ccccc1 | -7 | 0.96 | – | –
66 | CN(C)C(=O)N1CC[C@@]2(O)CCN(Cc3cccc(OC(F)F)c3)C[C@H]2C1 | 4 | -0.66 | – | –
67 | Cc1ccc(NC(=O)Cn2c(C)nc3c(-c4ccccn4)nsc3c2=O)c(C)c1 | 33 | -1.18 | – | –
68 | Cc1nnc(CN[C@@H](C)c2ccc(OC(F)(F)F)cc2)n1C | -13 | 1.06 | – | –
69 | O=C(Cc1c(F)cccc1Cl)N1C[C@H]2CCC[C@@H]1C2 | 2 | -0.26 | – | –
70 | Cc1ccc(F)c(NC(=O)C(=O)NCc2csc(C(C)(C)C)n2)c1 | 3 | -0.42 | – | –
71 | C1=C(CCNCc2ccc3c(c2)OCCO3)CCCC1 | -13 | 1.15 | – | –
72 | CC(C)c1nccc(N[C@@H]2CCCC[C@H]2CO)n1 | 9 | -1.15 | – | –
73 | CCN1CCc2c(c(Nc3ccccc3)[nH]c3nnc(N)c2-3)C1 | – | – | -1% and -3% | 0.13 and 0.37
74 | COCCNC(=O)c1c(Cc2cccc(F)c2)n(CCCN2CCOCC2)c(C)cc1=O | 1 | -0.09 | – | –
75 | CCc1noc(-c2c(O)c3cc(F)ccc3n(C)c2=O)n1 | -13 | 1.77 | – | –
76 | Fc1ccc(-c2csc(N3CCC[C@H](c4cn[nH]c4)C3)n2)cc1 | 36 | -1.02 | – | –
77 | CC(C)[C@@H]1NC(=O)[C@@H]2C[C@@H](CN2C(=O)c2cccc(C(F)(F)F)c2)n2cc(nn2)CNC(=O)[C@@H](Cc2ccccc2)NC1=O | -1 | 0.17 | – | –
78 | Cc1ccccc1C(=O)N(CCN1CCOCC1)Cc1csc(COc2cccc(C)c2C)n1 | 0 | 0.02 | – | –
79 | O=C(Nc1nncs1)c1ccc2[nH]c3c(c2c1)CCCC3 | -1 | 0.15 | – | –
80 | CCN1C(=O)c2c(C(=O)NC3CC3)ncn2C[C@@]1(C)C(=O)NCc1ccc(F)cc1 | -12 | 2.22 | – | –
81 | COc1ccc(CN2CC[C@@H](CO)[C@@H](O)C2)cc1Cn1cccn1 | -4 | 0.49 | – | –
82 | O=C(Cn1ncc2ccc(Cl)cc21)NC1CCCCCC1 | -7 | 1 | – | –
83 | O=C(O)C1(Oc2ccc(Cl)cc2)CCN(Cc2ccc(CO)o2)CC1 | -5 | 1 | – | –
84 | CN(Cc1cnccn1)Cc1cc(Br)cc2cccnc12 | -9 | 0.83 | – | –
